Test results taken from PubChem BioAssay AID1745853 (National Center for Advancing Translational Sciences (NCATS), 2022).
Where “and” joins values, the source holds several entries; their conditions need not be identical. Identical values can stand only once. This is one part of the list. The main result of the screen is listed elsewhere. These columns were measured beside it and carry no call.

How the values were obtained:
Assay in all cases: Primary Screen for Target Class Profiling of Small Molecule Inhibitors of Methyltransferases
[1] = target: Glycine N-methyltransferase (Homo sapiens) (UniProt Q14749); details: purified enzyme, MTase-Glo SAH luminescence; measured here: GNMT inhibition; at 40 µM; stronger effect = lower value
How it was run: (§1)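 Each enzyme was reacted with SAM and its substrate, with compounds tested once at 40 uM; SAH formed was read by MTase-Glo luminescence.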

[2] = target: Guanidinoacetate N-methyltransferase (Homo sapiens) (UniProt Q14353); details: purified enzyme, MTase-Glo SAH luminescence; measured here: GAMT inhibition; at 40 µM; stronger effect = lower value
How it was run: as §1

[3] = target: Histamine N-methyltransferase (Homo sapiens) (UniProt P50135); details: purified enzyme, MTase-Glo SAH luminescence; measured here: HNMT inhibition; at 40 µM; stronger effect = lower value
How it was run: as §1

[4] = target: Nicotinamide N-methyltransferase (Homo sapiens) (UniProt P40261); details: purified enzyme, MTase-Glo SAH luminescence; measured here: NNMT inhibition; at 40 µM; stronger effect = lower value
How it was run: as §1

[5] = target: Phenylethanolamine N-methyltransferase (Homo sapiens) (UniProt P11086); details: purified enzyme, MTase-Glo SAH luminescence; measured here: PNMT inhibition; at 40 µM; stronger effect = lower value
How it was run: as §1
% is scaled to controls: 0 for no effect and ±100 for the full control effect.

| SMILES | activity change, negative = inhibition [1] [%] | activity change, negative = inhibition [2] | activity change, negative = inhibition [3] [%] | activity change, negative = inhibition [4] | activity change, negative = inhibition [5] |
| --- | --- | --- | --- | --- | --- |
| Cc1cc(C)n(CCC(=O)N2CCC(Cc3noc(C4CC4)n3)C2)n1 (stereo not drawn) | -1.61 | -6.15% | -1.08 | -7.31% | -2.12% |
| COC(=O)c1ncn2c1C(=O)N(Cc1ccc(SC)cc1)C(C)(C(=O)NCc1ccccc1)C2 (stereo not drawn) | -0.276 | 3.19% | 1.56 | 1.95% | -0.455% |
| Cc1cccc(CN2CC(=O)N(Cc3ccc(Cl)cc3)c3ccccc3S2(=O)=O)c1 | 2.56 | 3.91% | -2.97 | -2.85% | -5.14% |
| CCOc1ccc(CN2C(=O)c3cc4ccccc4n3CC2(C)C(=O)NCCCOC(C)C)cc1 (stereo not drawn) | 2.1 | 8.55% | 2.97 | -1.6% | 0.369% |
| O=C(NCCc1ccccc1)c1ccc(CN2C(=O)CCn3nc(-c4cccc(Cl)c4)cc32)cc1 | 4.66 | 0% | 11.1 | -0.085% | 2.78% |
| O=C(O)C[C@@H](NC(=O)c1cc(-c2ccc(-c3ccncc3)cc2)cs1)c1ccccc1 | -41.1 | -9.54% | -15.7 | -29.3% | -15.4% |
| COc1ccc(C(=O)N2CCCCCNC(=O)[C@@H]3CCC[C@@H]32)cn1 | -4.05 | -7.8% | -2.45 | -13.7% | 8.14% |
| Cc1cc(C)c(S(=O)(=O)NCCn2c(C)cnc2C2CCC2)cc1C | -3.58 | 0.564% | -3.82 | -8.44% | -0.713% |
| COc1cccc([C@H]2Nc3ccc(S(=O)(=O)Nc4ccccc4F)cc3C3C=CCC32)c1OC (stereo partly drawn) | -20 | -7% | -15.5 | -15.9% | -18.1% |
| CCCC1c2ccc(C)n2CCN1C(=O)Nc1cccc(Cl)c1 (stereo not drawn) | 1.07 | 0.328% | -5.19 | 4.8% | -2.76% |
| CC(=O)O[C@@]12CO[C@@H]1C[C@H](O)[C@@]1(C)C(=O)[C@H](O)C3=C(C)[C@@H](OC(=O)C(O)[C@@H](NC(=O)OC(C)(C)C)c4ccccc4)C[C@@](O)([C@@H](OC(=O)c4ccccc4)[C@H]21)C3(C)C (stereo partly drawn) | – | 2.21% and 16.4% | – | -7.91% and -0.064% | 4.1% and 0.096% |
| CSc1cccc(NC(=O)N2CCn3cccc3C2Cc2ccccc2)c1 (stereo not drawn) | -2.08 | 3.54% | -3.04 | -6.76% | -6.51% |
| COc1ccc(F)c(-c2nc(CN(C)CC3(CO)CC3)c(C)o2)c1 | -2.08 | -0.422% | -3.46 | -5.82% | -0.894% |
| CC1CCC(NC(=O)C2(C)Cn3c(ccc3-c3ccccc3)C(=O)N2Cc2cccs2)CC1 (stereo not drawn) | 5.86 | 0% | 3.17 | -7% | -1.92% |
| O=C(Cc1cccc(C(F)(F)F)c1)N[C@H]1CCOC[C@H]1C1CCOCC1 | -2.61 | 0.048% | -1.53 | -4.11% | -3.97% |
| CC(C)(Cc1nc(-c2ccc(O)cn2)no1)C(=O)NC1=C(C(=O)O)CCCC1 | -2.86 | -7.31% | -6.2 | -18.3% | -13.6% |
| O=C(CCc1nnc2n(Cc3ccccc3)c(=O)c3ccccc3n12)NCCN1CCOCC1 | -4.87 | 0% | 7.41 | 11% | 3.25% |
| C[C@@H]1CC[C@H]2C(C)(C)[C@H](O)[C@H](O)C[C@]2(C)[C@@]12Cc1c(O)cc3c(c1O2)CNC3=O | 5.38 | 7% | 7.86 | -6.75% | 1.64% |
